Results published in paper PMC6362269.
Numbering of substitutions follows the chain as printed. In names and notes the source's numbering stands. No constants are given. Whether binding was seen depends on the method and setting. For part of these data: In cells and extracts the contact can be indirect. Some results given as binding are weak or reduced against the parent protein; the word gives no strength. For part of these data: Where a sequence is shown, tags or fusion partners need not be part of it.

T1: Tim40-FLAG (S. cerevisiae) (UniProt P36046)
T1 sequence: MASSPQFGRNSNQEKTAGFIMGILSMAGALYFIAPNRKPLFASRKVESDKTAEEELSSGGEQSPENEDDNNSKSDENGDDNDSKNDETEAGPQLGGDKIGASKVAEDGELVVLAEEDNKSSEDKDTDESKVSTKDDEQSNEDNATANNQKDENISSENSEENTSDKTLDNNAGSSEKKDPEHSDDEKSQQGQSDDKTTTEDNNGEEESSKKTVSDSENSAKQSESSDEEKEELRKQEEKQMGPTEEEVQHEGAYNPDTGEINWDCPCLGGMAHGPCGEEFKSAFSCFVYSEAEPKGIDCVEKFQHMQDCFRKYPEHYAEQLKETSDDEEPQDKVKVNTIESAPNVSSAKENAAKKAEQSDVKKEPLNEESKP

T2: Tim40/Mia40 (wild type, in yeast mitochondria) (S. cerevisiae (endogenous in yeast mitochondria)) (UniProt P36046)
T2 sequence: T1 sequence

T3: cytosolic receptor domain of rat Tom20 (Tom20^sol-His) (Rattus norvegicus) (UniProt Q62760)
T3 sequence: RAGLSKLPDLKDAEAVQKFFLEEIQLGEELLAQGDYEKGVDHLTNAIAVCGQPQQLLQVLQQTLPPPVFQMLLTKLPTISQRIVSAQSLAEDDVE

B1: Mic19C146S (radiolabeled) (protein, UniProt P43594 1-170)
chain: MGSNTSKVGAGAEKQQVYTPLTQIDFSQSLVSQLDSSKESDYVTKQNAEKFIEKKVSQRLSNLEVETLKKFEDTLNNSLLSDDDKDAVDGISSSSLNNQIESLNKKLTLFDQLELQKLEKYGGAKGKSDKKTDNGSISIKAKLTESLLANKGKPLNCYEEMEEFKKLVMG
modifications: [35S]-methionine label
B2: wild-type Mic19 (radiolabeled) (protein, UniProt P43594 1-170)
chain: B1 chain with S146C
modifications: N-myristoylation at Gly2 (in reticulocyte lysate); [35S]-methionine label
B3: Mic19WT-FLAG (protein, UniProt P43594 1-170)
chain: B1 chain with S146C
modifications: N-myristoylation at Gly2
B4: Mic19C157S (radiolabeled) (protein, UniProt P43594 1-170)
chain: B1 chain with S146C, C157S
modifications: [35S]-methionine label
B5: Mic19C146S/C157S (radiolabeled) (protein, UniProt P43594 1-170)
chain: B1 chain with C157S
modifications: [35S]-methionine label

Legend:
[1] = molecular target: T1, Tim40-FLAG (S. cerevisiae); assay: co-IP; radiolabeled Mic19C146S imported for 20 min at 25 °C into mitochondria with Tim40-FLAG; 50 mM IAA; solubilized with 1% digitonin (20 mM Tris-HCl pH 7.4, 150 mM NaCl); anti-FLAG M2-agarose, 2 h at 4 °C; non-reducing SDS-PAGE with 5 M urea; radioimaging
[2] = molecular target: T2, Tim40/Mia40 (wild type, in yeast mitochondria) (S. cerevisiae (endogenous in yeast mitochondria)); assay: mixed-disulfide conjugate on non-reducing SDS-PAGE; radiolabeled Mic19 variants imported into isolated yeast mitochondria at 25 °C; treated with 50 μg/ml PK and 50 mM IAA; SDS-PAGE with 5 M urea without β-mercaptoethanol; radioimaging; 75 kD Mic19-Tim40 conjugate
[3] = molecular target: T3, cytosolic receptor domain of rat Tom20 (Tom20^sol-His) (Rattus norvegicus); assay: pull-down; 0.5 µg Tom20^sol-His immobilised on Ni-NTA resin; mitochondria (1 mg protein) solubilized with 1% digitonin in 20 mM Tris-HCl pH 7.4, 300 mM NaCl, 10% glycerol; 14 h at 4 °C; washed with 50 mM imidazole; eluted with 500 mM imidazole; immunoblotting; only the target purified

Binder	binding [1]	binding [2]	binding [3]
B1	binds	binds	–
B2	–	binds weakly	–
B3	–	–	binds
B4	–	no binding	–
B5	–	no binding	–
